± gives the standard deviation of the averaged measurements. Whole data set: some 33,000 sequences, median “E-score (dimensionless, -0.5 to 0.5)” near -0.046, cut for the highest 2% near 0.36. This is one part of the list.
test system: T1, SpTbr T-box DNA-binding domain (GST fusion); assay: PBM E-score of 8-mer (E-score (dimensionless, -0.5 to 0.5)); Tbr is Tbrain of the sea star Patiria miniata (Pm) or the sea urchin Strongylocentrotus purpuratus (Sp); higher = stronger binding preference; most listed sequences are background and not binding sites; conditions: the construct has about 5 more residues each side
T1 sequence: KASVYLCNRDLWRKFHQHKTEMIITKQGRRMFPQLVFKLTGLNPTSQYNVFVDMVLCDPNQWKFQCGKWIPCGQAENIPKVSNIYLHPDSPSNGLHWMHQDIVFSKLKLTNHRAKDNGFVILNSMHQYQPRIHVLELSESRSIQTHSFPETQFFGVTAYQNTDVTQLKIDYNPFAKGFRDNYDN
Method in brief: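 GST-fused Tbr T-box DNA-binding domains (the whole T-box plus about five flanking residues) were expressed in BL21 E. coli at 20 °C and purified by glutathione affinity chromatography. Universal Agilent oligonucleotide arrays were made double-stranded by primer extension, incubated with 200 nM protein in PBS (pH 7.5), then scanned and quantified. Every ungapped 8-mer was scored from probe intensities. The Universal PBM Analysis Suite gave each word an enrichment E-score, averaged over duplicate arrays.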

Sequence | PBM E-score of 8-mer
GTATCGCA | 0.221 ± 0.02
CGGGACCG | -0.0903 ± 0.048
CAAGATAA | -0.144 ± 0.0098
ATATGTAA | -0.176 ± 0.04
ATAATGGG | -0.206 ± 0.063
CGGACGAC | -0.203 ± 0.028
ACTCCGTA | -0.155 ± 0.017
AGACCAGC | 0.0467 ± 0.024
ACGGAACT | -0.139 ± 0.019
AGAGATCA | -0.0746 ± 0.0016
CTGTAATC | -0.16 ± 0.066
ATCGAAAT | -0.0649 ± 0.025
CAAGTTCG | 0.0356 ± 0.0073
ATCGACTA | 0.0794 ± 0.01
TATCAGCA | 0.0345 ± 0.0075
CAAGATGA | -0.0746 ± 0.023
ACCCAAGG | -0.0401 ± 0.046
TAACGGGA | 0.143 ± 0.061
GCTCCGAC | 0.0514 ± 0.0047
ATTCTGCA | -0.151 ± 0.033
ATCTGGGC | -0.056 ± 0.0047
AGACGTTC | -0.0642 ± 0.046

Sequence | PBM E-score of 8-mer
ATGCGCCA | -0.0177 ± 0.0079
ACCTAAAG | 0.0571 ± 0.062
CCAAACCG | 0.0602 ± 0.012
GTCAAGAC | 0.223 ± 0.018
CTTATCGC | 0.175 ± 0.018
TGGCACCA | 0.362 ± 0.014
GACCGCAC | 0.0215 ± 0.05
ACGGTTCC | -0.0885 ± 0.02
GCAGTCCA | -0.00324 ± 0.027
ATTGTGGG | 0.0801 ± 0.075
AGCGCGAT | 0.276 ± 0.009
AGTAAGCC | -0.164 ± 0.051
ATTTCGCA | 0.335 ± 0.025
AAGGTCTG | -0.0365 ± 0.042
CCAATTCG | 0.0242 ± 0.027
CGTAAGTA | 0.169 ± 0.0079
AGATAAGC | -0.083 ± 0.007
CCCAAAGG | -0.0518 ± 0.025
CTCACATC | 0.377 ± 0.013
AGGGAGAA | -0.0813 ± 0.029
CAACCAAA | 0.00574 ± 0.045
AACTCTAC | 0.129 ± 0.16

Sequence | PBM E-score of 8-mer
ACAAGTAG | 0.118 ± 0.029
CCTCTTAA | -0.125 ± 0.019
CATTGCTA | -0.0279 ± 0.034
CCACTACA | -0.0342 ± 0.011
GTGCAATA | 0.156 ± 0.059
AAATGCGC | 0.0497 ± 0.016
GACCCATA | -0.274 ± 0.031
GATAATGA | -0.0176 ± 0.062
AACCGTTA | 0.0786 ± 0.051
AGGTGTCC | 0.428 ± 0.0068
AAGAAAGT | -0.0786 ± 0.019
GGTCATCA | 0.106 ± 0.028
ACTCACGC | 0.321 ± 0.043
CATCGTAA | -0.157 ± 0.035
ACTCTATA | -0.0754 ± 0.07
CATATATA | -0.218 ± 0.096
GAGCTACA | 0.0725 ± 0.038
AGGGACCC | -0.0731 ± 0.017
CCTGAGAC | -0.211 ± 0.019
ACGATCGG | 0.0591 ± 0.014
CGCCGTTC | 0.0479 ± 0.073
TCCTTTCA | -0.0136 ± 0.0097

Sequence | PBM E-score of 8-mer
AGTAAAGC | -0.2263 ± 0.0021
AACCGCCG | -0.0966 ± 0.016
AACAGGAC | -0.0388 ± 0.019
AGACAATG | 0.0097 ± 0.034
ACCGTGGC | 0.00789 ± 0.047
ATGATGAC | 0.0572 ± 0.045
AATCAAAG | -0.232 ± 0.028
CTCAGCAA | -0.0639 ± 0.029
AACACATG | 0.336 ± 0.046
CAGGGCTA | -0.145 ± 0.025
AGTCTATA | -0.195 ± 0.041
AATTAAAG | -0.205 ± 0.0089
GACGGCGA | 0.0807 ± 0.014
ACATTCCG | 0.0019 ± 0.027
AACGAAGT | -0.0781 ± 0.075
AAGCGAAA | -0.162 ± 0.019
AGAACGCG | 0.0755 ± 0.0077
CCAGGAAA | -0.0426 ± 0.033
CGCGCGAA | 0.408 ± 0.013
ACCATCTG | 0.0889 ± 0.025
CCTTCCTA | -0.147 ± 0.024
CCACTGTC | 0.0273 ± 0.0076

Sequence | PBM E-score of 8-mer
AGTTAAAG | -0.181 ± 0.071
CGCTTCTA | -0.0401 ± 0.026
TGCTAGCA | 0.228 ± 0.021
GCACACTA | 0.104 ± 0.018
CCGCCTTC | 0.121 ± 0.014
GCGTTTAA | -0.0335 ± 0.054
AAGTGCGA | 0.483 ± 0.0069
CCCGAAGG | -0.162 ± 0.055
CGCCTTCA | 0.20133 ± 4.2e-05
AACTGGAA | -0.271 ± 0.038
CCGCTTGC | 0.0621 ± 0.011
CATCAATC | -0.161 ± 0.074
AGTGTGTG | 0.36 ± 0.023
GAGGAACC | -0.132 ± 0.11
AATATGGA | -0.225 ± 0.073
ATACAGCC | -0.294 ± 0.058
CACCCCGC | 0.249 ± 0.042
ACGCACCT | 0.366 ± 0.0075
CTTGTGAC | 0.253 ± 0.003
ATGGACCG | -0.157 ± 0.0094
CCATACCA | -0.083 ± 0.077
CATGGTTC | 0.0583 ± 0.067

From the supplement of paper PMC4166925
